# In all, about 420,000 compounds went through this assay and about 64,000 (15%) were called active. Inconclusive results, whose numbers are uncertain, are shown with a selection of clear calls. The call rests on the fitted dose curve; in most records, active means well fitted inhibition curve with a large enough effect; inconclusive means small, poorly fitted or top-dose-only effect; inactive means flat fitted curve, though single readings scatter. No potency is given beside an inconclusive call; the fits are too rough.
# Test: qHTS for Inhibitors of human tyrosyl-DNA phosphodiesterase 1 (TDP1): qHTS in cells in absence of CPT; further: nearly all actives have a fitted effect of over 55% in size
# Settings: DT40 Tdp1-/- hTDP1 cells, no CPT, ATP luminescence, 48 h; series mostly up to 46.2 µM
# Excerpt: Human tyrosyl-DNA phosphodiesterase 1 (TDP1) is a novel repair gene, and we propose to use it as a new target for anticancer drug development. TDP1 is not an essential protein, but under treatment with topoisomerase I poison (camptothecin: CPT), TDP1 works as a critical factor for cell survival. To directly identify novel TDP1 inhibitors active in a cellular environment, we have knocked-out the Tdp1 gene in chicken DT40 cells (Tdp1-/-) and generated a complemented counterpart cells that contains a stable transfection of the human TDP1 gene (Tdp1-/-;hTDP1 cells). For the primary screen, Tdp1-/-;hTDP1 cells will be exposed to small molecules in the presence or absence of CPT, and their growth kinetics will be evaluated after 48 hours by measuring ATP activity. […] The hit compounds will then be evaluated in the presence or absence of CPT using Tdp1-/- cells. […] In tertiary assays, biochemical gel-based assays will be used to assess whether the hit compounds specifically target TDP1.
# To this end, we have screened this cell line against the MLSMR in two primary screens. In one screen we add CPT and in the other we screen in the absence of CPT; this AID represents the screen where CPT was absent.
# NIH Chemical Genomics Center [NCGC]
# NIH Molecular Libraries Probe Centers Network [MLPCN]
# Assay Submitter (PI): Yves Pommier, NCI
# DT40-hTDP1 cells without 20 nM Camptothecin (add 20 microL of DMSO in 1 L of cell culture medium) were dispensed at 400 cells/5microL/well in tissue culture treated 1536-well white wall/solid bottom assay plates (Greiner Bio-One North America, NC, U.S.A.) using a Multidrop Combi 8 channel dispenser (Thermo Fisher, Waltham, MA, USA). 23 nL compounds and controls were transferred using the pin tool (Kalypsys, San Diego, CA, USA) to the assay plates. The assay plates were then incubated at 37 masculineC for a minimum 48 hr. Three microL of Cell Titer Glo solution was added to the plates and incubated at RT in dark for 30 min. Luminescence was read using ViewLux (Perkin Elmer) with 1 sec exposure slow speed, high gain and 2x binning.
# Potency means the concentration at half of the fitted maximal effect; tags describe the fitted curve by direction and shape.
row,Structure (SMILES),Potency
1,COc1ccc(-n2nnnc2SCC(=O)c2ccc(OC)c(OC)c2)cc1,"inconclusive [inhibitor, partial curve]"
2,O=C(CCCN1C(=O)/C(=C\c2ccco2)SC1=S)Nc1ccc2ccccc2c1,"inconclusive [inhibitor, single point]"
3,CCCn1cnc2c1c(=O)n(CCCCC(C)=O)c(=O)n2C,inactive
4,CCCc1nc2sc3ccccc3c(=O)c2c(=O)n1Cc1ccc(OC)cc1,active: 20.6 µM
5,Cc1ccc(CC(=O)OC(C)C(=O)NC2CCCCC2C)cc1C (centres undefined),"inconclusive [inhibitor, single point]"
6,COc1cccc(NC(=O)COc2ccc(Br)c(C)c2)c1,inactive
7,COC(=O)c1ccc(Cn2c(C)c(C(=O)Nc3cccc(Oc4ccccc4)c3)sc2=O)o1,"inconclusive [inhibitor, single point]"
8,O=S(=O)(NCCc1csc(-c2cccnc2)n1)c1ccc(Cl)s1,active: 23.1 µM
9,O=C(CSc1nnnn1C1CCCCC1)NCc1cccs1,"inconclusive [inhibitor, single point]"
10,Cc1ccc(C(O)c2ncc(-c3cccc(C(F)(F)F)c3)[nH]2)cc1F (centres undefined),active: 13 µM
11,COc1ccc(S(=O)(=O)N2CCCCCC2)cc1C(=O)N(C)CCOc1ccc(Cl)cc1,active: 20.6 µM
12,COc1ccc(S(=O)(=O)n2c(N)nc3ccccc32)cc1,"inconclusive [inhibitor, single point]"
13,CCCCN(CC)CCCNC(=O)c1ccc2c(c1)N(Cc1ccc(C)cc1)C(=O)c1ccccc1S2,active: 5.17 µM
14,O=C(NCC(c1ccco1)N1CCCCC1)c1ccc(S(=O)(=O)Nc2ccccc2)cc1 (centres undefined),"inconclusive [inhibitor, single point]"
15,COCCCN(Cc1cc(OC)c(OC)c(OC)c1)C(=S)Nc1cccc(Cl)c1,active: 9.2 µM
16,CC[C@H](C)[C@@H](C(=O)NCCCCCCCCCCC(=O)N1CCN(C(=O)OC(C)(C)C)CC1)n1cc(CCCCCNC(=O)OC(C)(C)C)nn1,active: 5.8 µM
17,COc1cc(NC(=O)COCc2cc(-c3ccc4c(c3)OCO4)on2)c(OC)cc1Cl,"inconclusive [inhibitor, single point]"

row,Structure (SMILES),Potency
1,CC(=O)c1ccc(NC(=O)Cn2c(=O)nc(-c3ccccc3)c3ccccc32)cc1,inactive
2,O=C(CS(=O)(=O)c1cccc2nsnc12)N1CCN(c2ccc(F)cc2)CC1,"inconclusive [inhibitor, single point]"
3,CCCCCCCN1C/C=C\C(c2ccc(OC)cc2)N(Cc2ccc(F)cc2)C(=O)[C@H]1Cc1ccccc1 (some centres undefined),active: 18.4 µM
4,Cc1onc(-c2c(Cl)cccc2Cl)c1C(=O)N1CCc2ccccc21,"inconclusive [inhibitor, single point]"
5,Cc1c(C)c(C)c(S(=O)(=O)N2CCNCC2)c(C)c1C,"inconclusive [inhibitor, single point]"
6,CC(OC(=O)CCc1nc(=O)c2ccccc2n1C)C(=O)NCc1ccc2c(c1)OCO2 (centres undefined),inactive
7,COc1ccc(S(=O)(=O)N2CCN(CCC(=O)Nc3ccc(F)cc3)CC2)cc1,"inconclusive [inhibitor, partial curve, poor fit]"
8,CC(C)OC(=O)CC(=O)CSc1nc2c(cc1C#N)CCCCCC2,inactive
9,Cc1ccccc1NC(=O)NC1CCS(=O)(=O)C1 (centres undefined),inactive
10,Cc1cc(-c2ccc(C)c(S(=O)(=O)Nc3ccc(C)c(N(C)C)c3)c2)on1,"inconclusive [inhibitor, single point]"
11,COc1cc2ccccc2cc1C(=O)Nc1ccc(N2CCN(C)CC2)cc1,"inconclusive [inhibitor, single point]"
12,O=C(NC1(C(F)(F)F)N=C(c2ccccc2)N(Cc2ccccc2)C1=O)c1ccc(F)cc1 (centres undefined),"inconclusive [inhibitor, single point]"
13,Cc1ccc(NP(=O)(c2ccc(N(C)C)cc2NC(=O)c2cccs2)N2CCOCC2)cc1 (centres undefined),"inconclusive [inhibitor, single point]"
14,CC1(C)Oc2ccc(C(=O)N/N=C/c3ccc(O)cc3)cc2NC1=O,inactive
15,CC(=O)c1ccc(Nc2c([N+](=O)[O-])ccc3nonc23)cc1,inactive
16,COc1ccc(-c2sc3ccccc3c2-c2ccc(OCCN3CCOCC3)cc2)cc1,"inconclusive [inhibitor, single point]"
17,CN1C(=O)/C(=C\c2cc(Br)cs2)c2ccccc21,"inconclusive [inhibitor, single point]"
